Laboratory results from PubChem BioAssay.
This list was built around the results that the source calls inconclusive (neither active nor inactive); the mix of calls is not that of the screen. Active and inactive are the calls of the source.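 The calls were made as follows: active = fitted half-maximal concentration for viability loss no higher than twice the top valid dose, in every repeat run; inconclusive = repeat runs disagree, flat partial loss, or poor curve fit; inactive = the rest.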

Assay: IOSE-T80 viability loss, PAX8-independent line – cell-based, cherry-pick, selectivity assay for PAX8 inhibitor project, dose response (AID 687032);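 also: cells exposed to compound for 96 h before reading; 0% = neutral control wells and -100% = 2 µM mitoxantrone kill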
Conditions: CellTiterGlo ATP luminescence, 96 h; at 35 µM (top of the series) unless noted

SMILES | activity change, negative = viability loss
CC(=O)Nc1ccc(NC(=O)c2nc(S(=O)(=O)Cc3ccccc3)ncc2Cl)cc1 | inconclusive: 12.6%
O=C(C[C@H]1CC[C@H]2[C@@H](COC[C@@H](O)CN2S(=O)(=O)c2ccccc2Cl)O1)N1CCC(Cc2ccccc2)CC1 | inactive: 21.8%
N#C[C@H]1[C@H](c2ccc(C#CC3CCCCC3)cc2)[C@H](CO)N1C(=O)Nc1ccc(F)cc1 | inactive: -5.21% [at 30 µM]
Nn1cnnc1N/N=C\c1ccc(-c2ccccc2[N+](=O)[O-])o1 | inconclusive: 4.67%
Cc1ccc(-c2nc(C)sc2CC(=O)OCC(=O)Nc2cccc([N+](=O)[O-])c2)cc1 | inconclusive: 17.8%
O=C(CCc1ccc(S(=O)(=O)NCc2ccccc2)cc1)NCc1cccnc1 | inconclusive: 9.51%
CCCCC1Cc2[nH]c(=S)[nH]c(=O)c2C(c2ccc(F)cc2)O1 (centres undefined) | inconclusive: -7.23%
C[C@H](CO)N1C[C@H](C)[C@H](CN(C)Cc2ccc3c(c2)OCO3)Oc2ccc(NC(=O)Nc3cccc4ccccc34)cc2C1=O | inactive: 15.1%
COc1cccc2c1C(=O)c1c(O)c3c(c(O)c1C2=O)C[C@](O)(C(C)=O)C[C@H]3O[C@@H]1C[C@@H](N)[C@@H](O)[C@@H](C)O1 | inconclusive: 8.36%
CC1=CC(=O)C(C(C)C)=C/C1=N/OS(=O)(=O)c1ccccc1 | inconclusive: 0.631%
COC(=O)C1=C(C)N(Cc2cccc(C(F)(F)F)c2)C(=NCc2ccc(OC)cc2)NC1c1cccc(F)c1 (centres undefined) | inconclusive: 10.2%
O=C(CCN1C(=O)/C(=C/c2ccccc2Cl)SC1=S)Nc1ccccc1C(=O)O | inconclusive: 0.903%
Cc1ccc(S(=O)(=O)N(C)C[C@H]2Oc3c(NC(=O)Nc4cccc5ccccc45)cccc3C(=O)N([C@@H](C)CO)C[C@@H]2C)cc1 | inconclusive: 5.43%
C[C@H]1CN([C@@H](C)CO)S(=O)(=O)c2ccc(C#CC3CCCC3)cc2O[C@@H]1CN(C)Cc1cccnc1 | inactive: 12.2%
